According to patent US20090042870A1, “Antimicrobial Composition” (priority 2005, published 2009):

Tested on: Escherichia coli K12 10083 (NCIMB)
Test: Hygienic handrub efficacy on artificially contaminated hands of volunteers, EN 1500:1997
Format: in vivo
Conditions: mean of 15 subjects; rub-in 3 ml/30 s, repeat once

CC(C)O [propan-2-ol 60% (v/v), Propan-2-ol]
log y (log10 post values), mean: 3.56 log10
log z (log10 reduction factor), mean: 3.519 log10
